Measured values as given in PubChem BioAssay AID493208 (National Center for Advancing Translational Sciences (NCATS), 2011).
Among all 44,000 compounds or so, about 340 (0.77%) were called active. Roughly 5% stayed inconclusive and do not appear here. Calls follow the shape of the dose curve; as a rule, active = well fitted inhibition curve with a large enough effect; inconclusive = small, poorly fitted or top-dose-only effect; inactive = flat fitted curve, though single readings scatter. The list shows a part of the results.

Test: Acumen qHTS Assay for Inhibitors of the mTORC1 Signaling Pathway in MEF (Tsc2-/-, p53-/-) Cells: Sytravon; also: nearly all actives have a fitted effect of over 50% in size;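 as to activity change, negative = inhibition: plate controls were DMSO for no effect and rapamycin for full effect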
Conditions: phospho-rpS6 immunofluorescence/PI, 24 h; series mostly up to 38.3 µM; activity change, negative = inhibition: at the top concentration
Method in brief: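 Tsc2-/-, p53-/- MEFs (empty-vector stable line) in DMEM + 10% FBS were treated with compounds 24 h at 37 degree Celsius, fixed, and immunostained for phospho-rpS6 (Alexa-488) with propidium iodide counterstain. Laser-scanning cytometry gave % positive cells, normalized against 7.5 nM rapamycin and DMSO.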
Potency is read from the fitted curve at half-maximal effect.

Activity change, negative = inhibition, inactive:
CCOc1ccc(CN2C(=O)c3ccccc3Sc3ccc(C(=O)NCCCN4CCOCC4)cc32)cc1 -12.5%, CCOc1ccc(S(=O)(=O)N(CC(=O)NCCc2ccc(OC)cc2)c2ccccc2)cc1 -16.1%, COc1ccccc1N1CCN(c2c(CN3CCCC3)c(=O)oc3ccccc23)CC1 -7.07%, Cc1ccc(OCC(=O)N(Cc2nc(-c3ccccc3)no2)C(C)C)cc1C -8%, Cc1ccc(S(=O)(=O)N2CCCc3cc(NS(=O)(=O)c4ccccc4)ccc32)cc1 16%, CCOc1ccc(C(=O)Nc2ccc(NC(=O)c3ccccc3)cc2)cc1Br -0.868%, CCOC(=O)c1ccc(N2CCN(c3ccc(F)cc3)CC2)c(NC(=O)Nc2ccc(CC)cc2)c1 6.05%, CCOC(=O)CNC(=O)Nc1cc(C(=O)NCc2ccc(C(C)C)cc2)ccc1N1CCCC1 9.66%, Cc1ccc2[nH]c(=O)c3cc(C(=O)NCc4cccc(Cl)c4)sc3c2c1 -13.2%, Cc1cc(OCC(=O)Nc2sc3c(c2C#N)CCC(C)C3)ccc1Cl (stereo not drawn) 6.29%, COc1ccccc1-c1noc(CSc2nnc(-c3ccccc3)n2-c2ccc(C)c(C)c2)n1 -10.2%, Cc1cc(C)c(/C=C/c2onc(C)c2S(=O)(=O)N2CCC(C(=O)Nc3cccc(C)c3C)CC2)c(C)c1 2.85%, CC(=O)c1ccc(NC(=O)CSc2nc(-c3ccccc3C)nc3c2c(=O)n(C)c(=O)n3C)cc1 -12.8%, CCOC(=O)c1c(C)oc2nc(C)nc(N(C)Cc3ccccc3)c12 0.713%, CCOc1ccc(C(=O)c2cn(Cc3cccc(OC)c3)c3cc4c(cc3c2=O)OCO4)cc1 3.57%, O=C(CSc1ncc(-c2ccc(Cl)cc2)[nH]1)Nc1ccccc1F 3.58%, O=C(C1CCCN(S(=O)(=O)c2cccc3nonc23)C1)N1CCN(c2cccc(C(F)(F)F)c2)CC1 (stereo not drawn) -2.83%, COc1cc2c(cc1OC)C(CC(=O)O)N(C(=O)Nc1cc(OC)c(OC)c(OC)c1)CC2 (stereo not drawn) 3.29%, Cc1ccc(C)c(N2CCN(CCCNC(=O)c3ccc4nc(N5CCC(C)CC5)sc4c3)CC2)c1 0.721%, CCc1ccc(C2=NN(CCC(=O)NCCc3ccccc3)C(=O)CC2)cc1 -3.43%, CCc1c(C)c2cc3c(c(C)c2oc1=O)OCN(CCc1ccc(OC)c(OC)c1)C3 -4.69%, COc1ccc(-n2c(=O)c3c4c(sc3n(Cc3ccccc3C)c2=O)CCCC4)c(OC)c1 -19.2%, CC(=O)c1ccc(Nc2cc(C)nc3nc(Cc4ccccc4)nn23)cc1 0.234%, COc1ccc(N(CC(=O)NCCc2ccccc2)S(=O)(=O)c2c(C)nn(C)c2C)cc1 0.718%, CCCn1c2ccccc2c2cnn(CC(=O)Nc3cc(OC)c(OC)c(OC)c3)c(=O)c21 -1.87%, CCC1(C)CC(=O)c2c(ccc3oc(C(=O)Nc4ccc(C(C)=O)cc4)c(C)c23)O1 (stereo not drawn) -0.39%, CCOc1ccc(C(=O)NCCc2csc(-c3cccc(C)c3)n2)cc1 -13.3%, CCc1nc2ccc(C(=O)N3CCN(c4cccc(Cl)c4)CC3)cc2nc1CC 1.85%, CC(C)c1ccc(Nc2sc(C(=O)c3ccccc3)c(N)c2S(=O)(=O)c2ccccc2)cc1 1.58%, CC(C)CC(=O)Nc1nnc(S(=O)(=O)N2c3ccccc3CC2C)s1 (stereo not drawn) 3.59%, Cc1ccc(N2CCN(C(=O)Cn3ncc4c([nH]c5ccc(C)cc54)c3=O)CC2)c(C)c1 1.38%, CCc1ccc(C(=O)COC(=O)C(NC(=O)C2CCC(C)CC2)C(C)C)cc1 (stereo not drawn) -5.05%, CCOCCOC(=O)c1ccc2c(c1)N(Cc1ccccc1C#N)C(=O)c1ccccc1S2(=O)=O 3.89%, CCOc1ccc(CCNC(=O)CCCn2c(=O)c3cccn3c3cccnc32)cc1 0.126%, COc1cc(CNC(=O)c2cnc3c(-c4cccc(C)c4)c(C)nn3c2C)cc(OC)c1OC -14.1%, COc1ccc(-c2cc3ccc(O)c(CN4CCN(C)CC4)c3oc2=O)cc1OC -20.9%, CC(=O)Nc1ccc(Nc2ccc3cc(S(=O)(=O)N4CCCCC4)ccc3n2)cc1 2.31%, O=C(NC1CC(=O)N(c2ccc(Cl)cc2)C1)c1cc2ccccc2o1 (stereo not drawn) -5.6%, CCCc1ccc(OCC(=O)Nc2sc3c(c2C(=O)OCC)CCC(C(C)(C)C)C3)cc1 (stereo not drawn) -7.99%, Nc1cc(=O)nc(SCC(=O)Nc2ccccc2)n1CCc1ccccc1 0.252%, COc1ccc2c(c1)c1c(c(=O)n(-c3cccc(C)c3)c(=O)n1CC(=O)NCCC1=CCCCC1)n2C -14%, COc1ccccc1Nc1nc(-c2ccccc2)c(CC(=O)O)s1 0.921%, CCOC(=O)c1c(-c2ccc(OC)c(OC)c2)csc1NC(=O)c1ccccc1F -6.23%, Cc1cccc(CNS(=O)(=O)c2ccc(-c3coc(C)n3)cc2)c1 -5.56%, O=c1c2cccnc2n(Cc2cccc(F)c2)c(=O)n1Cc1ccc(F)cc1 -1.11%, COc1ccc2[nH]cc(CCNC(=O)Nc3cc(C)cc(C)c3)c2c1 -2.41%, CCC(Nc1ccc(-c2nc(-c3cccnc3)no2)cc1[N+](=O)[O-])c1ccccc1 (stereo not drawn) 1.97%, Cc1ccccc1OCC(=O)Nc1ccc2nc(SCC(=O)N3CCCC3)sc2c1 -1.44%, O=C1Cc2cc(S(=O)(=O)Nc3ccc(OC(F)(F)F)cc3)cc3c2N1CCC3 -3.02%, CCOC(=O)c1cc(-c2ccc(OC)c(S(=O)(=O)N3CCN(c4ccccc4)CC3)c2)on1 9.63%, COc1ccc(S(=O)(=O)c2nnn(-c3cccc(Cl)c3)c2N)cc1 -2.41%, CCOC(=O)c1c(S(=O)(=O)N2CCC(C(=O)NCc3ccccc3Cl)CC2)c(C)n(C)c1C 0.25%, COCCn1ccc2c(OCC(=O)Nc3cccc(C(F)(F)F)c3)cccc2c1=O -8.62%, COc1cccc(CNC(=O)c2ccc3c(c2)sc2nc(-c4cccc(OC)c4)cn23)c1 -3.48%, COc1ccc(N2CC(NC(=O)C(c3ccccc3)c3ccccc3)CC2=O)cc1 (stereo not drawn) -1.07%, CCOC(=O)c1ccc(NC(=O)Cn2nc(C)c3nn(-c4ccc(Cl)cc4)c(C)c3c2=O)cc1 7.54%, CCOC(=O)c1c(NC(=O)C(C)Sc2cn(CCNC(=O)c3ccc(OCC)cc3)c3ccccc23)sc2c1CCC2 (stereo not drawn) 10.9%, Cc1cccc(N2CCN(C(=O)c3cnn(-c4ccccc4)c3C3CCN(C(=O)OC(C)(C)C)CC3)CC2)c1C -19.9%, Clc1ccc(CSc2nncn3c2cc2occc23)cc1 0.254%, Cc1ccc(Nc2ncnc3c2nc2n3CCCC2)cc1F -1.16%, Cc1nc2nc[nH]n2c(=O)c1NS(=O)(=O)c1ccc(Br)cc1 -13.5%, COc1ccccc1CNC(=O)C1CCN(S(=O)(=O)Cc2ccccc2)CC1 -0.553%, CC1=C(c2ccc(Cl)cc2)S(=O)(=O)N=C1N1CCN(c2cc(C)ccc2C)CC1 1.43%, COc1ccc(CNC(=O)C(=O)NCC(c2cccnc2)N2CCN(c3ccccc3)CC2)cc1 (stereo not drawn) -4.04%, Cc1cccc(N(C)S(=O)(=O)c2ccc3c(c2)NC(=O)CC(=O)N3)c1 -6.55%, Cc1cc(C)cc(-n2c(SCC(=O)Nc3ccc4c(c3)OCO4)nc3c([nH]c4ccccc43)c2=O)c1 -10.7%, COc1cccc(Cn2c(=O)n(Cc3ccccc3)c(=O)c3c2c2cc(OC)ccc2n3C)c1 -4.59%, CCCN1CCCc2cc(CN(CCCN3CCOCC3)C(=O)Nc3ccc(Cl)c(Cl)c3)ccc21 -12.4%, Cc1cc2[nH]c(=O)c(=O)[nH]c2cc1S(=O)(=O)N1CCN(c2ccccc2F)CC1 1.16%, COC(=O)c1c(NC(=O)c2ccc(C(C)(C)C)cc2)sc2c1CCC(C)C2 (stereo not drawn) 0.371%, CCOC(=O)c1c(NC(=O)COc2ccccc2)sc(C(C)=O)c1C -0.818%, COc1cc(C2CC(=O)c3c([nH]c(C(=O)OC4CCCC4)c3C)C2)cc(OC)c1OC (stereo not drawn) -3.6%, Clc1ccc(-c2cn3cc(Cc4ccccc4)sc3n2)cc1 -3.67%, CCc1ccc(NC(=O)CNC(=O)Cn2c(C)cc3ccccc3c2=O)cc1 0.308%, CCOc1ccc(CCNC(=O)c2ccc(CSCc3ccccc3C)o2)cc1OCC -14.3%, O=C(CSc1nc(=O)n(Cc2ccncc2)c2c1CCC2)Nc1cccc(F)c1 -18.3%, CCN(C(=O)C(NS(=O)(=O)c1ccc(Br)s1)c1ccccc1)c1ccc(C)c(C)c1 (stereo not drawn) -5.43%, CC1(C)CC(=O)c2cc(-c3nc(-c4ccc(F)cc4)cs3)c(=O)[nH]c2C1 -14.9%, CCC(=O)N1c2ccccc2CC1C(=O)NCCN1CCN(c2cc(Cl)ccc2C)CC1 (stereo not drawn) 14.9%, COc1ccc(C)cc1NC(=O)Cn1cc(S(=O)(=O)N2CCC(C)CC2)c2ccccc2c1=O 3.6%, O=C(Cc1ccc(Cl)cc1)Nc1ccc2oc(-c3ccc(F)cc3)nc2c1 -22.1%, Cc1cc(C)cc(OCC(=O)N2CCC(c3nc4ccccc4o3)CC2)c1 -0.58%, COC(=O)c1ccccc1NC(=O)C(Cc1ccccc1)N1Cc2ccccc2C1=O (stereo not drawn) 2.68%, CCOc1ccc(NC(=O)c2c(NCc3cc(OC)c(OC)cc3OC)sc3c2CCCC3)cc1 -11.9%, CC(=O)Nc1ccc(S(=O)(=O)NCC2CCC(C(=O)NCCc3ccc(C)cc3)CC2)cc1 (stereo not drawn) -2.55%, COc1ccc(NC(=O)Cn2c(-c3ccc(F)cc3)cc(C(C)=O)c2C)c(OC)c1 -11.2%, CC(=O)c1cccc(NC(=O)c2ccc3c(c2)N(Cc2ccc(C)cc2)CCS3)c1 1.54%, COc1ccc(CCNC(=O)Cn2c(=O)nc(-c3ccccc3)c3cc(Cl)ccc32)cc1OC 2.43%, N#C/C(=C\c1ccc(F)cc1)c1nc(-c2ccc(-c3ccccc3)cc2)cs1 -2.24%, CCCC1=Nc2cc(C(=O)NC3CCCCC3)ccc2Sc2ccc(C)cc21 -2.53%, Cc1cc(C)c2c(=O)c3c(oc2c1)C(=O)N(CCCOC(C)C)C3c1ccccc1F (stereo not drawn) 1.36%

Potency, active:
CCN(c1ccccc1)S(=O)(=O)c1ccc(NC(=O)c2nc(S(C)(=O)=O)ncc2Cl)cc1 3.29 µM, O=S(=O)(c1ccccc1)n1nc(-c2ccc(Cl)cc2)nc1NCc1ccccc1 14.7 µM
